# Experimental data taken from the supplement of paper PMC9588766.
# Structures can show the parent of a compound that is named as a salt. ± gives the standard deviation of the averaged measurements. In all, about 2,000 compounds were measured (“cell viability relative to DMSO control (compound alone)”: median about 0.98, lowest 2% from about 0.23 on). The list shows a part of the results.
# System: PDC-DUC18828
# Assay: cell viability relative to DMSO control (compound alone) (fraction); PDC-DUC18828 is a patient-derived cholangiocarcinoma cell line; higher = less growth inhibition
# Details: 1 µM; 72 h
# Procedure: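 Selleck Bioactive library screen in the patient-derived FGFR2-G3BP2 fusion-positive ICC cell line PDC-DUC18828 (500 cells/well). Each compound was tested at 1 uM alone, in triplicate, for 72 h. Viability was read by CellTiter-Glo and normalised to plate DMSO controls.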
row,SMILES,cell viability
1,NS(=O)(=O)NCCNc1nonc1/C(=N/O)Nc1ccc(F)c(Br)c1,0.945 ± 0.0069
2,O[C@@H](COc1cccc2ncccc12)CN1CCN(C2c3ccccc3[C@@H]3[C@H](c4ccccc42)C3(F)F)CC1 (some centres not stated),0.934 ± 0.019
3,O=S(=O)(NCCNC/C=C/c1ccc(Br)cc1)c1cccc2cnccc12,1.03 ± 0.03
4,CC(C)c1noc(N2CCC(COc3ccc(-c4ccc(S(C)(=O)=O)cc4)nc3)CC2)n1,1.05 ± 0.052
5,O=C(NC1CCNCC1)c1n[nH]cc1NC(=O)c1c(Cl)cccc1Cl,0.421 ± 0.052
6,O=CN1CC/C(=C/c2ccc3c(c2)OCO3)C1=O,0.943 ± 0.042
7,"CC[C@H](Nc1ncnc2[nH]cnc12)c1nc2cccc(F)c2c(=O)n1-c1ccccc1 [CAL-101 (Idelalisib, GS-1101)]",0.9237 ± 0.0058
8,CCCC(CCC)C(=O)O [Divalproex Sodium],0.954 ± 0.029
9,CCCC(CCC)C(=O)O [Valproic acid sodium salt (Sodium valproate)],1.06 ± 0.061
10,CN(C)[C@@H](CCOc1cccc2ccccc12)c1ccccc1 [Dapoxetine HCl],0.953 ± 0.014
11,CNC(=O)c1ccc(N2C(=S)N(c3cnc(C#N)c(C(F)(F)F)c3)C(=O)C23CCC3)cc1F,0.942 ± 0.042
12,O=C(c1ccc(OCCN2CCCCC2)cc1)c1c(-c2ccc(O)cc2)sc2cc(O)ccc12 [Raloxifene HCl],0.937 ± 0.054
13,CCOc1cc(N2CCC(O)CC2)ccc1Nc1ncc2c(n1)N(C)c1ccccc1C(=O)N2C,0.956 ± 0.029
14,Fc1ccc2[nH]ccc2c1-c1nc(N2CCOCC2)c2sc(CN3CCN(CC4CC4)CC3)cc2n1,0.887 ± 0.12
15,CC(CN1c2ccccc2Sc2ccccc21)N(C)C (configuration not stated) [Promethazine HCl],1.09 ± 0.018
16,CNC(=O)c1ccccc1Sc1ccc2c(/C=C/c3ccccn3)n[nH]c2c1 [Axitinib],0.698 ± 0.012
17,Cc1ccc(NC(=O)Nc2cc(C(F)(F)F)ccc2F)cc1Nc1ccc2c(c1)NC(=O)/C2=C\c1ccc[nH]1,0.926 ± 0.034
18,CCOC(=O)C1=C(C)NC(C)=C(C(=O)OC)C1c1cccc([N+](=O)[O-])c1 (configuration not stated) [Nitrendipine],0.922 ± 0.016
19,COC1(c2sc3c(N4CCOCC4)nc(-c4cnc(N)nc4)nc3c2C)COC1,0.276 ± 0.017
20,COc1ccc(-n2nc(C(N)=O)c3c2C(=O)N(c2ccc(N4CCCCC4=O)cc2)CC3)cc1 [Apixaban],0.994 ± 0.045
21,COc1ccc(C(C)=O)c(O)c1 [Paeonol],1.07 ± 0.029

row,SMILES,cell viability
1,COc1c(O)cc2c(c1O)[C@@H]1O[C@H](CO)[C@@H](O)[C@H](O)[C@H]1OC2=O [Bergenin],1.01 ± 0.086
2,Nc1cccc(-c2cc3c(Oc4cccc(O)c4)ncnc3[nH]2)c1,0.735 ± 0.038
3,CC(C)[C@H]1CC[C@H](C(=O)N[C@H](Cc2ccccc2)C(=O)O)CC1 [Nateglinide],0.979 ± 0.074
4,COc1ccccc1OCCNCC(O)COc1cccc2[nH]c3ccccc3c12 (configuration not stated) [Carvedilol],0.974 ± 0.018
5,CC(C)c1nc(CN(C)C(=O)N[C@H](C(=O)N[C@@H](Cc2ccccc2)C[C@H](O)[C@H](Cc2ccccc2)NC(=O)OCc2cncs2)C(C)C)cs1 [Ritonavir],0.996 ± 0.036
6,CC1CCc2cc(F)cc3c(=O)c(C(=O)O)cn1c23 (configuration not stated) [Flumequine],0.97 ± 0.022
7,CCCCOc1ccc(OCCCN2CCOCC2)cc1 [Pramoxine HCl],0.937 ± 0.033
8,C[C@@H](O)[C@H]1C(=O)N2C(C(=O)OCOC(=O)C(C)(C)C)=C(SC3CN(C4=NCCS4)C3)[C@H](C)[C@H]12 [Tebipenem Pivoxil],0.988 ± 0.024
9,CCCS(=O)(=O)Nc1ccc(F)c(C(=O)c2c[nH]c3ncc(Cl)cc23)c1F,0.968 ± 0.034
10,Nc1nc(N)nc(-c2cc(Cl)ccc2Cl)n1 [Irsogladine],1.03 ± 0.079
11,CCN1CCCC1CNC(=O)c1cc(S(=O)(=O)CC)c(N)cc1OC (configuration not stated) [Amisulpride],0.979 ± 0.034
12,CNC(=O)CN1CCC(Oc2cc3c(Nc4cccc(Cl)c4F)ncnc3cc2OC)CC1 [AZD8931 (Sapitinib)],0.992 ± 0.013
13,Nc1ncnc2c1c(-c1cccc(OCc3ccccc3)c1)cn2C1CC(CN2CCCC2)C1 (configuration not stated),0.919 ± 0.046
14,O=C(Nc1cccc(Cl)c1)Nc1ncc(CCNc2ncnc3ccsc23)s1 [SNS-314 Mesylate],0.696 ± 0.05
15,CCc1c(C(=O)NCCc2ccc(N3CCCCC3)cc2)[nH]c2ccc(Cl)cc12,1.05 ± 0.043
16,CN1CCN(c2ccc(C(=O)Nc3n[nH]c4ccc(Cc5cc(F)cc(F)c5)cc34)c(NC3CCOCC3)c2)CC1 [Entrectinib (RXDX-101)],0.887 ± 0.039
17,S=c1[nH]cnc2nc[nH]c12 [Mercaptopurine (6-MP)],0.928 ± 0.056
18,NS(=O)(=O)c1ccc(NC(=O)Nc2ccc(F)cc2)cc1,1 ± 0.04
19,Cc1cccc(-c2[nH]ncc2-c2ccc3ncccc3n2)n1,1.01 ± 0.05
20,O=C(NCCCNc1nc(Nc2cccc(NC(=O)N3CCCC3)c2)ncc1I)c1cccs1,0.701 ± 0.025
21,CN(Cc1ccc(C(C)(C)C)cc1)Cc1cccc2ccccc12 [Butenafine HCl],1.01 ± 0.046
